For experiment [1], the target named is human Retinoic Acid Receptor gamma (RARg), RARG (gene 5916) (UniProt P13631). The experiment is described as follows: ATG_RARg_TRANS: Attagene TRANS-FACTORIAL HepG2 Assay for human Retinoic Acid Receptor gamma (RARg) (AID 2283009). The procedure, abridged: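 Transactivation of exogenous RARg-Gal4 fusion measured as reporter transcript induction after 24 h in transfected HepG2 cells. RNA reverse-transcribed, amplified, fluorescently labeled and resolved by capillary electrophoresis; increase relative to DMSO.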

Experiment [2] concerns the target Bile acid receptor (Homo sapiens) (UniProt Q96RI1). The experiment is described as follows: OT_FXR_FXRSRC1_1440: Odyssey Thera (OT) 24-hour HEK293T Protein-Complementation Assay for Farnesoid X receptor/SRC-1 Co-activator (AID 2283384). An outline of the steps: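 Protein-fragment complementation: FXR and SRC-1 fused to reporter fragments that reassemble on interaction, read by fluorescence intensity. Human HEK293T cells measured 24 h post-dose; positive-direction fit versus DMSO.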

Experiment [3] addresses human RAR-related Orphan Receptor gamma (RORg), RORC (gene 6097) (UniProt P51449). Put plainly: ATG_RORg_TRANS: Attagene TRANS-FACTORIAL HepG2 Assay for human RAR-related Orphan Receptor gamma (RORg) (AID 2283011). The procedure, abridged:
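Transient MRTU transfection of HepG2 (TRANS format, exogenous NR-Gal4 chimera). 24 h dosing. Total RNA → oligo(dT) RT → PCR → 6-FAM labelling → HpaI cut → CE. Gain vs DMSO.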

In experiment [4] the target is Peroxisome proliferator-activated receptor gamma (Homo sapiens) (UniProt P37231). The experiment is described as follows: ATG_PPARg_TRANS: Attagene TRANS-FACTORIAL HepG2 Assay for human Peroxisome Proliferator-activated Receptor-gamma (PPARg) (AID 2283007). An outline of the steps: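 Chimeric NR-Gal4 transactivation is measured in transiently transfected HepG2 cells by reporter mRNA induction at 24 h. Detection uses RT-PCR with fluorescent labelling and capillary electrophoresis; DMSO defines baseline.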

In experiment [5] the target is human CYP1A2, CYP1A2 (gene 1544) (UniProt P05177). The experiment is described as follows: NVS_ADME_hCYP1A2: NovaScreen (NVS) CYP450-related Enzyme Activity (ADME) Assay for human CYP1A2 (AID 2283102).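 Note: potency for inhibition since loss of fluorescence marks reduced CYP1A2 activity.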 An outline of the steps:
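Fluorescence-intensity enzyme activity read-out, taken 0.5 h post-dosing, using insect-cell-derived recombinant CYP1A2 and specific fluorescent substrate. Acetonitrile served as negative control/baseline. Single-concentration duplicate screen at 10 uM, then concentration-response follow-up.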

Experiment [6] is described as follows: Tanguay_ZF_120hpf_PFIN_legacy: (Legacy) Oregon State University Tanguay Lab 120 Hour Post-fertilization zebrafish Assay for Pectoral Fin Malformation (AID 2283648). An outline of the steps:
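Scoring of pectoral fin malformation was binary, made at 120 hpf on larvae exposed statically from 6 hpf after enzymatic chorion removal. Activity was fitted upward relative to DMSO controls at 0.64% (vol/vol).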

For experiment [7], the target named is Estrogen receptor (Homo sapiens) (UniProt P03372). The experiment is described as follows: CCTE_Deisenroth_AIME_384WELL_LUC_Inactive: CCTE's 384-well Estrogen Receptor Transactivation Assay without AIME metabolic competence (ERTA luciferase; metabolism negative), Deisenroth Lab (AID 2284038). The procedure, abridged:
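VM7Luc4E2 ER transactivation, luciferase bioluminescence after 24 h, using medium pre-incubated 2 h with S9-free alginate microspheres. Concentrations 0.002–200 uM; gain of signal fitted relative to 17beta-estradiol.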

The target of experiment [8] is Nuclear receptor subfamily 1 group I member 2 (Homo sapiens) (UniProt O75469). Put plainly: ATG_PXR_TRANS: Attagene TRANS-FACTORIAL HepG2 Assay for human Pregnane X Receptor (PXR) (AID 2283008). An outline of the steps: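 Transactivation by exogenous PXR–GAL4 fusion measured as reporter transcript induction after 24 h compound treatment of transfected human HepG2 cells. Read-out via RT-PCR and capillary electrophoresis of labelled fragments, fitted upward relative to DMSO.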

Experiment [9] concerns the target human RAR-related Orphan Receptor beta (RORb), RORB (gene 6096) (UniProt Q92753). Put plainly: ATG_RORb_TRANS: Attagene TRANS-FACTORIAL HepG2 Assay for human RAR-related Orphan Receptor beta (RORb) (AID 2283010). The procedure, abridged: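 Read-out is reporter mRNA induction, quantified by RT-PCR with fluorescent capillary electrophoresis, 24 h post-dose in transiently transfected HepG2 expressing exogenous NR-Gal4 chimera. Activity fitted upward versus DMSO.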

Experiment [10] addresses Retinoic acid receptor RXR-alpha (Homo sapiens) (UniProt P19793). The experiment is described as follows: OT_NURR1_NURR1RXRa_0480: Odyssey Thera (OT) 8-hour HEK293T Protein Complementation Assay for Nurr1/retinoid X receptor (RXR) (AID 2283385). The procedure, abridged:
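Interaction of Nurr1 with RXRα read as reconstituted reporter fluorescence in a HEK293T fragment-complementation system, 8 h post-treatment; increase over DMSO baseline analysed.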

In experiment [11] the target is Peroxisome proliferator-activated receptor gamma (Homo sapiens) (UniProt P37231). The experiment is described as follows: OT_PPARg_PPARgSRC1_1440: Odyssey Thera (OT) 24-hour Protein-Complementation Assay for Peroxisome Proliferator-activated Receptor Gamma/ SRC-1 Co-activator (AID 2283388).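 Note: nuclear to cytoplasmic ratio of reconstituted Venus YFP fluorescence in fixed imaged cells.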 The procedure, abridged:
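Readout: nuclear-to-cytoplasmic 488 nm fluorescence ratio, ≥350 cells per image, 8 images per well, after 24 h compound exposure of HEK293T expressing PPARg/SRC-1 split-YFP fusions. Activity fitted in positive direction against DMSO.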

Read-out in experiment [12]: Keratin 19 (KRT19), KRT19 (gene 3880)
The experiment is described as follows: LTEA_HepaRG_KRT19: Life Technologies and Expression Analysis (LTEA) Assay for Keratin 19 (KRT19) using HepaRG (AID 2283512; active = hit-call score of the fitted dose curve at least 0.9, where 1 is the maximum; inactive = score below 0.9). To be noted: actives raise or lower the signal; mRNA level, 48 h. An outline of the steps:
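HepaRG, 48 h chemical exposure, 8-pt half-log CRC from 100 uM, 0.5% DMSO vehicle, duplicates. Readout: TaqMan qRT-PCR of KRT19 mRNA, housekeeping-normalized (ACTB/GAPDH/POLR2A). Bidirectional fit vs DMSO baseline.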

Read-out in experiment [13]: JUN Transcription Factor, JUN (gene 3725)
Put plainly: LTEA_HepaRG_JUN: Life Technologies and Expression Analysis (LTEA) Assay for JUN Transcription Factor using HepaRG (AID 2283513; active = hit-call score of the fitted dose curve at least 0.9, where 1 is the maximum; inactive = score below 0.9). The conditions noted are these: actives raise or lower the signal; mRNA level, 48 h. The procedure, abridged:
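mRNA measured by TaqMan qRT-PCR after 48 h chemical exposure of HepaRG cultures; normalization to three housekeeping genes. Duplicate eight-point half-log curves from 100 uM in 0.5% DMSO; gain or loss fitted against DMSO baseline.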

Read-out in experiment [14]: X-box binding protein 1 (XBP1), XBP1 (gene 7494)
The experiment is described as follows: LTEA_HepaRG_XBP1: Life Technologies and Expression Analysis (LTEA) Assay for X-box binding protein 1 (XBP1) using HepaRG (AID 2283540; active = hit-call score of the fitted dose curve at least 0.9, where 1 is the maximum; inactive = score below 0.9). To be noted: actives raise or lower the signal; mRNA level, 48 h. An outline of the steps: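 HepaRG, 48 h exposure, 8-pt half-log CRC top 100 uM, 0.5% DMSO vehicle, duplicates. Readout: TaqMan qRT-PCR of XBP1 mRNA, housekeeping-normalised (ACTB/GAPDH/POLR2A); bidirectional fit vs DMSO baseline.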

The nature of experiment [15]: CCTE_Harrill_HTTr_Viability_MCF7: CCTE's 6-hour Cell Viability Assessment for the High-Throughput Transcriptomics (HTTr) Platform, in MCF-7 cells cultured in DMEM + 10% fetal bovine serum, Harrill Lab (AID 2284010; active = hit-call score of the fitted dose curve at least 0.9, where 1 is the maximum; inactive = score below 0.9). An outline of the steps: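 Propidium iodide exclusion, imaged by high-content analysis, gauged viability after a six-hour exposure across eight concentrations. Cells were MCF-7 grown in DMEM with 10% fetal bovine serum; fits run in both directions against DMSO.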

A short description of experiment [16]: CCTE_Shafer_MEA_dev_per_network_spike_spike_percent: CCTE's Neural Network Formation Assay for Percent of Spikes in a Network Spike, Shafer Lab (AID 2284054; active = hit-call score of the fitted dose curve at least 0.9, where 1 is the maximum; inactive = score below 0.9). An outline of the steps:
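Developing networks of rat cortical neurons are dosed at day 0 and recorded extracellularly four times up to day 12. The endpoint is the area under the curve of percent spikes in network spikes, fitted in the negative direction relative to DMSO.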

Structures are written as SMILES. For some of these results: This list holds what a sample rich in hits left over. Records with an inconclusive call do not appear. Only a part is listed here, and it is no random draw. Active and inactive are the calls of the source. Rule for the calls, unless noted: active = hit-call score of the fitted dose curve at least 0.9, where 1 is the maximum; inconclusive = response in the unintended direction; inactive = score below 0.9.

UniProt P37231, sequence (P37231 whole entry, looked up, the tested form may be a part): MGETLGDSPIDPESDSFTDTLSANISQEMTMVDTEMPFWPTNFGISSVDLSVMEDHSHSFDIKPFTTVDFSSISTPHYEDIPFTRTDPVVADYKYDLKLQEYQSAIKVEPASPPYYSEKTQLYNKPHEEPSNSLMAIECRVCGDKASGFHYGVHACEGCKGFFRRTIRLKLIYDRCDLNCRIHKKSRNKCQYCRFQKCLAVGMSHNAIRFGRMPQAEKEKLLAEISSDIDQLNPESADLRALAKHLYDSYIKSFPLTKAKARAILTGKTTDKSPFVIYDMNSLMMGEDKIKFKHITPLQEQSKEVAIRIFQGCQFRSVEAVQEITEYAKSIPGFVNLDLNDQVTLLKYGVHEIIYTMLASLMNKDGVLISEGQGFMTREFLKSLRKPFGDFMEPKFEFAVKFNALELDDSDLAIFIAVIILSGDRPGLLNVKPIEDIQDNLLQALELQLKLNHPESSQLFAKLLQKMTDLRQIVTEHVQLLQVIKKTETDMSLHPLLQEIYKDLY
UniProt P19793, sequence (P19793 whole entry, looked up, the tested form may be a part): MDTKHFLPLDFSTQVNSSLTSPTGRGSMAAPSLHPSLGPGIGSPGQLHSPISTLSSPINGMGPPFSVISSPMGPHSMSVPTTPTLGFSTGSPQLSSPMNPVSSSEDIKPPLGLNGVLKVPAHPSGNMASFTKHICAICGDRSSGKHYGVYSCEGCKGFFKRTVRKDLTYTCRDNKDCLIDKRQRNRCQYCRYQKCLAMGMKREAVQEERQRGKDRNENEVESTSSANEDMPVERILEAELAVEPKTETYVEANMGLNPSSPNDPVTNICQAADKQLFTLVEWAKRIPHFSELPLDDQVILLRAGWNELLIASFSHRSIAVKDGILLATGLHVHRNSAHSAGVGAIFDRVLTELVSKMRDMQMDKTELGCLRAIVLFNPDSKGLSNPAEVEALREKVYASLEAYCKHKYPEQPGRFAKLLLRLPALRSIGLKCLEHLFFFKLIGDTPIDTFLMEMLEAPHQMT
human Retinoic Acid Receptor gamma (RARg), RARG (gene 5916), sequence (P13631 whole entry, looked up, the tested form may be a part): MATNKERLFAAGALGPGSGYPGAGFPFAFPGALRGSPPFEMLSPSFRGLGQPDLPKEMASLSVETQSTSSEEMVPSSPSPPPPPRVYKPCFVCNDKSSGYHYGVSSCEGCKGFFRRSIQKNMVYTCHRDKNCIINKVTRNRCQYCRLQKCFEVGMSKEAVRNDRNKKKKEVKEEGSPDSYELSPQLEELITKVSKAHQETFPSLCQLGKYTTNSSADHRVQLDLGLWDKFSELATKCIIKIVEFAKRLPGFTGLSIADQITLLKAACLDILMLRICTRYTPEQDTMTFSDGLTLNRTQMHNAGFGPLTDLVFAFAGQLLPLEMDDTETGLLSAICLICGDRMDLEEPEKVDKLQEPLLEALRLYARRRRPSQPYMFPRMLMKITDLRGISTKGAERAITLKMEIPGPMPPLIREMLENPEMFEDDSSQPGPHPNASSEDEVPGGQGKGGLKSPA
UniProt O75469, sequence (O75469 whole entry, looked up, the tested form may be a part): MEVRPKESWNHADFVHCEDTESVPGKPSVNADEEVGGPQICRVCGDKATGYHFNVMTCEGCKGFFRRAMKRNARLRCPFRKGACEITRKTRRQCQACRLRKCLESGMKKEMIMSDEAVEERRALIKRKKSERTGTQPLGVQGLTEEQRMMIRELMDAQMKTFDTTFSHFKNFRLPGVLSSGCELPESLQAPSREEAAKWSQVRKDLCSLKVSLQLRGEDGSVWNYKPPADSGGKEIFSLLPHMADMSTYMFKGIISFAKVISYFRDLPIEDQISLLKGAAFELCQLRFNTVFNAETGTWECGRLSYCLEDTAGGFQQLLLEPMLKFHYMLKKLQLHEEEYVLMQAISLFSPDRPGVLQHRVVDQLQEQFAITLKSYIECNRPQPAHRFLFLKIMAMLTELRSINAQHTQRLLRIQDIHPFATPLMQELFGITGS
UniProt Q96RI1, sequence (Q96RI1 whole entry, looked up, the tested form may be a part): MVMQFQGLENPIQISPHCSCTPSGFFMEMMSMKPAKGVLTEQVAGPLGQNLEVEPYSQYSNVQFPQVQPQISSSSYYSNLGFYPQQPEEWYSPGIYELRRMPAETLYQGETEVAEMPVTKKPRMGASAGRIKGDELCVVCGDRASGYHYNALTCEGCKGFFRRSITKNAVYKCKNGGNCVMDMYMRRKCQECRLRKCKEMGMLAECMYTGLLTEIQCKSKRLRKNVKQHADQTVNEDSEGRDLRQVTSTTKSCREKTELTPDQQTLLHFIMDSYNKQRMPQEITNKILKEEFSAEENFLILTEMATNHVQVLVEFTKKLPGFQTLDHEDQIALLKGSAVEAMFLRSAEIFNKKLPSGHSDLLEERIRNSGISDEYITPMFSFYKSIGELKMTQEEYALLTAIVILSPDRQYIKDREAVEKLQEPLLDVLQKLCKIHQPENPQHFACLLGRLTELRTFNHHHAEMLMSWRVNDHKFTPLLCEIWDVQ
UniProt P51449, sequence (P51449 whole entry, looked up, the tested form may be a part): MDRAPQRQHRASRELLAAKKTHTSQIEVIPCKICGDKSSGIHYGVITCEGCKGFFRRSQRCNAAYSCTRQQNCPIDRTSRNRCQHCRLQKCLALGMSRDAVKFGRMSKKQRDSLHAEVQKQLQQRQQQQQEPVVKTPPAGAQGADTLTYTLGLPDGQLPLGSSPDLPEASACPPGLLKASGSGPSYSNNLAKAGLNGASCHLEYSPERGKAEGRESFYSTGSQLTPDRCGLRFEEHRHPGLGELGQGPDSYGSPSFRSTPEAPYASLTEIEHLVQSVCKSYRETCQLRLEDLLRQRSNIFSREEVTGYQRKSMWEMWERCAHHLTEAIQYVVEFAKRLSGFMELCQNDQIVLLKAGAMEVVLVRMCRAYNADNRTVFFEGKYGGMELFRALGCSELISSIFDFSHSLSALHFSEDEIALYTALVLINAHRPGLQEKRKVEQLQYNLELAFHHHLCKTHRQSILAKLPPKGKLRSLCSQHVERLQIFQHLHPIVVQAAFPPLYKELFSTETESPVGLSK
UniProt P03372, sequence (P03372 whole entry, looked up): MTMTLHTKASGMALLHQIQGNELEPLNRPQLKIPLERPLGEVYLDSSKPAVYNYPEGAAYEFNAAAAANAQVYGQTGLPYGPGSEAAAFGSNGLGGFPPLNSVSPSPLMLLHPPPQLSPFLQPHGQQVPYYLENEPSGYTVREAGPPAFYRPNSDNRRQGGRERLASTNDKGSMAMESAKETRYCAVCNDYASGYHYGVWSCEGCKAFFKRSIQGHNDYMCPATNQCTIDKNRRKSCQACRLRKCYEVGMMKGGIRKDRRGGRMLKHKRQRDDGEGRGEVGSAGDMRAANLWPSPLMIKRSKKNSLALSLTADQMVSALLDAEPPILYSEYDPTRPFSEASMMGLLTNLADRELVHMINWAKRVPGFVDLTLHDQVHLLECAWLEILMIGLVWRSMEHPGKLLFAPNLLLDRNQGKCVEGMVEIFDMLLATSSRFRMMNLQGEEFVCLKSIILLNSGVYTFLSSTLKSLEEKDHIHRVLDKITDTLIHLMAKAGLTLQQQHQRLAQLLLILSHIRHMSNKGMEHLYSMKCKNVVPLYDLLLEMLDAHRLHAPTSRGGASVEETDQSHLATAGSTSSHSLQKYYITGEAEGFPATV
UniProt Q92753, sequence (Q92753 whole entry, looked up, the tested form may be a part): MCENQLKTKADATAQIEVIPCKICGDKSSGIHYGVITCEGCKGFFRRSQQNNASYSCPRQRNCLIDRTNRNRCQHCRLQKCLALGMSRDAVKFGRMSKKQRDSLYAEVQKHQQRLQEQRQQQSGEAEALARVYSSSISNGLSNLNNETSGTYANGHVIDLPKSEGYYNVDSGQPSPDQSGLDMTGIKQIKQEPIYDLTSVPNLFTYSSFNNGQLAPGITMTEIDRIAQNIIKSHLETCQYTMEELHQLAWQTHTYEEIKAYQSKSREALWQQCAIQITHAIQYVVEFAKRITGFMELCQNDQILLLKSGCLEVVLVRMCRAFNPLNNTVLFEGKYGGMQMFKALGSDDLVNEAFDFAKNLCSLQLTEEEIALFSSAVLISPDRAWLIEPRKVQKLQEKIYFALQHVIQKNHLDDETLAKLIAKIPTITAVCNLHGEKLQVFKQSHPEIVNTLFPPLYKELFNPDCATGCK
UniProt P05177, sequence (P05177 whole entry, looked up): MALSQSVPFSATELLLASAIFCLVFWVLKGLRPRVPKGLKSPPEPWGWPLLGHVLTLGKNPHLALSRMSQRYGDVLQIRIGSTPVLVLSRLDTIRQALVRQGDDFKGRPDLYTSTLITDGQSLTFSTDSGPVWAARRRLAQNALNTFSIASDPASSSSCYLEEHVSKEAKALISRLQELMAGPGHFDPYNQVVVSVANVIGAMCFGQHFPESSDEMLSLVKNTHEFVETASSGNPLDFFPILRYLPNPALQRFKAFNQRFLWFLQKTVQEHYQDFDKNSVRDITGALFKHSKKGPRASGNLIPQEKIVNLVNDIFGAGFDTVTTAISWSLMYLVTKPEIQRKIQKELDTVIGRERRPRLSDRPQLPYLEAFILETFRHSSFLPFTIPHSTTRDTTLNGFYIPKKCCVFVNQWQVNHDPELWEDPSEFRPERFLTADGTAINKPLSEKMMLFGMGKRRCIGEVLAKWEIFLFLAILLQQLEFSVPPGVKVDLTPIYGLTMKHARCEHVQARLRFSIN

Regarding `Oc1ccc(Cl)cc1Cc1cc(Cl)ccc1O`, in [1], the compound was called inactive. Moreover, the AC50 in experiment [2] was active: 11.8 µM.
On to `CC(O)C(=O)O` (stereo unspecified), for which the compound was classed as inactive in experiment [3].
Turning to `c1ccc2cc3c(ccc4ccccc43)cc2c1`, the AC50 in [4] was active: 27.2 µM; in [5], active: 8.78 µM; in experiment [6], active: 13.4 µM; in experiment [7], active: 77.3 µM.
Turning to `CCCOC(=O)CC`, the compound was called inactive in experiment [8].
Consider `O=C1O[C@H]([C@@H](O)CO)C(O)=C1O`, for which the call in [9], in experiment [10], in [11], in [12], in experiment [13] and in experiment [14] was inactive. Besides, the result in experiment [15] and in experiment [16] was inactive.

Values taken from PubChem BioAssay (EPA / NIEHS).
